In assay [1] the target is T1, FREQUENCY (FRQ), wild type, tagged with V5H6 (Neurospora crassa) (UniProt P19970).
T1 sequence: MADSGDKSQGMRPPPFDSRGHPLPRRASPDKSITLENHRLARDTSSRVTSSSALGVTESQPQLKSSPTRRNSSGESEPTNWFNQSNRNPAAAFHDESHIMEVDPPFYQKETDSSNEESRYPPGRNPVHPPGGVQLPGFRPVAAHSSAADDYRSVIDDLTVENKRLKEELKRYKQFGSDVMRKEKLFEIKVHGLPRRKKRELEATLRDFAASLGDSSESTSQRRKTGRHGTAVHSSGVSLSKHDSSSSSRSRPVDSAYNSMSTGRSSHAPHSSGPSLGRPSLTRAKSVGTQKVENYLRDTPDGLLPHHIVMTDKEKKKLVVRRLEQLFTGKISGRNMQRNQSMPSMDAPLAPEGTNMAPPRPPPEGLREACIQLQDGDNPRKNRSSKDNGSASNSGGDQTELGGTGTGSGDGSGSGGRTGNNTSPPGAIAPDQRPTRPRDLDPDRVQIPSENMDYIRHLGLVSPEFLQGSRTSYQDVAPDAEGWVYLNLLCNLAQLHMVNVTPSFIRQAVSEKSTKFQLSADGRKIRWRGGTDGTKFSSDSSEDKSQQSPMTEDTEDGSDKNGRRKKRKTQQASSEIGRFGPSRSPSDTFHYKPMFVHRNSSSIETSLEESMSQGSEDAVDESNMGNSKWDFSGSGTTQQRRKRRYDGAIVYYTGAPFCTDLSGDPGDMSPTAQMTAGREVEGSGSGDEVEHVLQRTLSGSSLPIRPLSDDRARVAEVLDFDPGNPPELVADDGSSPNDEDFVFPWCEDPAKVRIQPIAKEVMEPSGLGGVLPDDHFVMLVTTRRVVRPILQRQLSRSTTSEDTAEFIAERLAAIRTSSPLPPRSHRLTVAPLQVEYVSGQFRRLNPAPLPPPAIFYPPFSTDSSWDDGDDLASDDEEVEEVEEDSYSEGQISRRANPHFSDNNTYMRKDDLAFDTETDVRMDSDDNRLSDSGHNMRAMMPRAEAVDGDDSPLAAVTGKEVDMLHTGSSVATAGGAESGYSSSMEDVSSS
The assay is described as follows: co-IP; FRQ^V5H6 pulled down with V5 resin from Neurospora lysate; NaCl in lysis and wash buffers raised to 500 or 1000 mM; Western blot.

By UniProt entry, the sequences of proteins in these tests, tags left out.
UniProt Q01371: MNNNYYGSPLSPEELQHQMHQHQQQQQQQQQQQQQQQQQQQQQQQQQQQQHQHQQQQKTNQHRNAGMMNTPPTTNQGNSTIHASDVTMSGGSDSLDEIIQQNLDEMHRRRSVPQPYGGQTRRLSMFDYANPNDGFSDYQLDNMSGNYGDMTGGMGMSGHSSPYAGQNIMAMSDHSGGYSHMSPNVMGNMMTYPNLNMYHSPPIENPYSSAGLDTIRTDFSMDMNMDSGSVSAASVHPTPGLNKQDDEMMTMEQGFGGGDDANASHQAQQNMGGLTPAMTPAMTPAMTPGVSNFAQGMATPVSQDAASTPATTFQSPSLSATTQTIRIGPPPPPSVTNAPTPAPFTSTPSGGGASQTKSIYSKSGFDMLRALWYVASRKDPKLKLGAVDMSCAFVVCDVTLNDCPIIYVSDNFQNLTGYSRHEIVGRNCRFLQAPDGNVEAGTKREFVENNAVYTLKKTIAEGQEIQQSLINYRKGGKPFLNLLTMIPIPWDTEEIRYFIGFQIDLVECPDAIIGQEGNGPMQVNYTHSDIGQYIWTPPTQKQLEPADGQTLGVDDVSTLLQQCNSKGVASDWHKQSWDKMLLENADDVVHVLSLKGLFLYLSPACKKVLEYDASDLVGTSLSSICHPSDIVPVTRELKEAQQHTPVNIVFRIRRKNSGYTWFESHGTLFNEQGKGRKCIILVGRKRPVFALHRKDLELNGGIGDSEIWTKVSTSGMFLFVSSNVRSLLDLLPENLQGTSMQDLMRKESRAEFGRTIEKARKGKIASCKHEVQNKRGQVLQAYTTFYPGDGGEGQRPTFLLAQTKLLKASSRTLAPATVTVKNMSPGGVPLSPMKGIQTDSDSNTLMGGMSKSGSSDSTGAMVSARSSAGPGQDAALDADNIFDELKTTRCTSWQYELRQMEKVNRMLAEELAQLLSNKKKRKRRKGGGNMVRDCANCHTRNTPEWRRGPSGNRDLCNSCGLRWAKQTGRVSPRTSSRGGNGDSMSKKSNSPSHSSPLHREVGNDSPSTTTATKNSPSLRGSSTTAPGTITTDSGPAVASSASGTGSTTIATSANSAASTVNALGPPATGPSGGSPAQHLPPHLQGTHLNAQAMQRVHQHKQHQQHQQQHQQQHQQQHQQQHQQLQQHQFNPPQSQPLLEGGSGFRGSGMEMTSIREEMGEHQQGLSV

For assay [2], the target named is T2, FRQ 629–989, V5H6-tagged (Neurospora crassa) (UniProt P19970).
T2 sequence: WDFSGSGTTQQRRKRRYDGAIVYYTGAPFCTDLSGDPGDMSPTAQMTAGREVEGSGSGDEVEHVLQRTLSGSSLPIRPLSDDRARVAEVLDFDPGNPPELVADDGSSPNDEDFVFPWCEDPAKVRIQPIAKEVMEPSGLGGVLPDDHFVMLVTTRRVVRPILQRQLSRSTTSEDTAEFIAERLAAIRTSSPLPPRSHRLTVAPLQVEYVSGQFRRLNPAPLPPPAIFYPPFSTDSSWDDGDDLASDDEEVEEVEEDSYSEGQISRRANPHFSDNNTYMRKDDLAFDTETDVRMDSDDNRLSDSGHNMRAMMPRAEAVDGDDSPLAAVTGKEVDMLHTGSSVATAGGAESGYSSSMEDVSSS
The experiment in a line: co-IP; V5H6-tagged FRQ (wild type or mutant) pulled down with V5 agarose from Neurospora lysate (cultures in the light, 25 °C); 50 mM Hepes pH 7.4, 137 mM NaCl, 10% glycerol, 0.4% NP-40; 4 °C, 2 h; Western blot with FRQ, FRH, WC-1 and WC-2 antibodies. Background: A western blot detects proteins with antibodies after separation by electrophoresis.

For assay [3], the target named is T3, FRQ Δ801–856, V5H6-tagged (Neurospora crassa) (UniProt P19970).
T3 sequence: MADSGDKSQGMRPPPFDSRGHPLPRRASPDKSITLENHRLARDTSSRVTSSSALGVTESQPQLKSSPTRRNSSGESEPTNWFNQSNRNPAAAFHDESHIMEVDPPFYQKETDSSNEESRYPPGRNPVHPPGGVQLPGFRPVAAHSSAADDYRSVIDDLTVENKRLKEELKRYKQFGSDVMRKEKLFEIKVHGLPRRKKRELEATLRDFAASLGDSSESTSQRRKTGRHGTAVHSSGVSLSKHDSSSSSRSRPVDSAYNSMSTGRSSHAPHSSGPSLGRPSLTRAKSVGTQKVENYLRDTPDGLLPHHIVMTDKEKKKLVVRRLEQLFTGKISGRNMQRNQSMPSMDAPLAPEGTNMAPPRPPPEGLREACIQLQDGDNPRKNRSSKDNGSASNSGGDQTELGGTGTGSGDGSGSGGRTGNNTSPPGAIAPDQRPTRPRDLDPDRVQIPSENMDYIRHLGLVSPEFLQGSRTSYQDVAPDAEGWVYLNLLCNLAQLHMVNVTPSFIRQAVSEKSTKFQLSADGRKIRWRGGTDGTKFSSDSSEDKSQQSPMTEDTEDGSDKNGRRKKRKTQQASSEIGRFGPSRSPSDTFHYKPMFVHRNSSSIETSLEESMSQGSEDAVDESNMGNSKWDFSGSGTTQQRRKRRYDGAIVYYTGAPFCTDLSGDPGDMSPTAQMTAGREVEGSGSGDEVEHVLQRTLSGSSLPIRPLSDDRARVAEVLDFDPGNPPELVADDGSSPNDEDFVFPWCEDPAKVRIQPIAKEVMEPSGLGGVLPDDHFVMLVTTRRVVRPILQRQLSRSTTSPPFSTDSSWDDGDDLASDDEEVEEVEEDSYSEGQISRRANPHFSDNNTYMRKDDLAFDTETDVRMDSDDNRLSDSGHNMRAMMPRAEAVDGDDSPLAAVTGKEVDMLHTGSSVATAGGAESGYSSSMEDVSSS
The assay is described as above.

Results are given in words; binding and its absence hold for the method and conditions named. Binding seen in cells or lysates may run through a third protein. Some entries that bind do so weakly or less than the wild type. Sequences can lack the tags named with a protein.

Consider “White Collar-1 (WC-1) (from UniProt Q01371 1-1167)”, for which the binding result in assay [1] was “no binding (condition: with 500 mM or 1000 mM NaCl)”.

B1: White Collar-2 (WC-2) (protein, UniProt P78714 1-530)
chain: MSHGQPPPGSSMYGFGAMGMGSGMGSGMGSGMGTGMGTGMGTGMSASQMTSDPQDMMSLLDTSVFPGFDGMSMSLDVGDSMSNPFTPVSVPPPLPAGNAGPSHVGVCGGHGAPDQLFSPDDLIATSMSSAGPMIATPTTTTSGPSGGPSSGGGSTLTEFTKRRNWPAKVVEELQDWEHILDANGRIKHVSPSVEPLTGYKPPEIIDLFLRDLIHPDDVGVFTAELNEAIATGSQLRLFYRFRKKDGNWTIFETVGHAHIAAAKFAPNPQNQSPFCQAVFMMARPYPTKNAGLLDSFLEHKIENERLKRRIAELRREEQEEQEESHRTWRMSQEGRSDVTPSDDTATQMGMTPFYIPMNAQADVMMPPPSQPASSLNIALTRENLEGIAGSRPDSIREKMLRYEGNHADTIEMLTGLKYQEGERSHGITTGNASPTLIKGDAGIAIPLDRDPRTGEKKKKIKVAEEYVCTDCGTLDSPEWRKGPSGPKTLCNACGLRWAKKEKKKNANNNNNGGGIGGHNDIHTPMGDHMG
As for B1, the binding entry in assay [1] is “no binding (condition: with 500 mM or 1000 mM NaCl)”; in assay [2], “no binding”; in assay [3], “no binding”.

B2: FRQ-interacting RNA helicase (FRH) (protein, UniProt Q1K502 1-1106)
chain: MDDLFEVFEEQPRAQKKRKASPDVEMADGAAAAAPVANAAAAVTHPQAQAAPAPQKDNIDNNDNNNNNTTTSAVQPTIPNGDAAAAADDVQSPQSPHGLGDNKRRKKTDEAEPIMTDAFQTAESREVTGAQGFAPTEGESIVLSHNIQHQVALPPDLDYEYIPLSEHKPPAEPARTYSFKLDPFQALSVASIEREESVLVSAHTSAGKTVVAEYAIAQCLKKNQRVIYTSPIKALSNQKYRDFQAEFGDVGLMTGDVTINPTASCLVMTTEILRSMLYRGSEIMREVAWVVFDEIHYMRDKIRGVVWEETIILLPDKVRYVFLSATIPNAFQFAEWIAKIHRQACHVVYTDFRPTPLQNYFFPAGGKGILLIVDEKGNFKENNFNQAMAMIEEKKGTDSNDWSAKQKGKGKNKKTNKGGEAADEKADIAKIIKMILKKNFQPVIVFNFSKRECEQMALASSSMKFNAPDEENMVNKVFENALASLSEDDKNLPQISNILPLLRKGIGVHHSGLLPILKETIEILFQEGLIKVLFATETFSIGLNMPARTVVFTQVTKWDGQQRRPLTSSEYIQMAGRAGRRGLDDRGIVIMMVDDKLEPETARAIVVGNQDKLNSAFHLGYNMVLNLLRIEAISPEYMLERCFFQFQNAASVPQLERELISLQQERDAIIIPDESIVKDYYGVRQQLEEYNKDMVFVIQHPQNCLGFFQEGRLIHIKSPSGVDYGWGVLIKHIQRQTPKNGQPPYPEQESYVLDVLLKVSGDFNPKTRGEGPMPEGIMPAGKDSKNARWEVVPCLLNCLRALGQLRVFLPKRLESADEKDGVGKAVDEISRRFPDGIPILDPMENMGINDDSFKKLLRKIEVLESRLVANPLHNSPLLVELWNQYSLKMQLGEQIKEKKKAIARAHSVAQLDELKSRKRVLRRLGFINDAEVVQMKARVACEISSTEGHELLLAELLFNRFFNELSPEICACILSCFIFDEKIETQALKEELAKPFREIQAQARIIAKVSAESKLDVNEDEYVQSLKWQLMETVLAWAQGRPFSEICKMTNVYEGSLIRLFRRLEELLRQMAEAARVMGSEELKDKFELSLSKIRRDIVSFNSLYL
Take B2: the binding entry in assay [1] was “binds”; in assay [2] it was “binds”; in assay [3], “no binding”.
